# Source: the antibiotic and cytotoxicity screens of Wong et al. (2023)
# The other results are listed elsewhere or left out.
# Test system: HepG2
# Assay: cytotoxicity call (relative viability < 0.9)
# Conditions: 10 µM
row,Compound,cytotoxicity call
1,C[C@@H]1CCCCO[C@@H](CN(C)S(=O)(=O)c2ccc(Cl)cc2)[C@@H](C)CN([C@H](C)CO)C(=O)c2cc(NC(=O)Nc3ccc(F)cc3)ccc2O1,inactive
2,COc1ccc(S(=O)(=O)Nc2ccc3c(c2)C(=O)N([C@@H](C)CO)C[C@@H](C)[C@H](CN(C)Cc2ccncc2)O3)cc1,inactive
3,CCS(=O)(=O)N1C[C@]2(CN(C2)S(=O)(=O)c2cn(cn2)C)c2c([nH]c3cc(ccc23)OC)[C@H]1CO,inactive
4,CCCN(C)C[C@@H]1OCCCC[C@H](C)Oc2ccc(NC(=O)Nc3ccc(C(F)(F)F)cc3)cc2C(=O)N([C@@H](C)CO)C[C@@H]1C,inactive
5,O=C(O)c1cc(S(=O)(=O)NCCN2CCNC2=O)ccc1O,inactive
6,CCOC(=O)Nc1ccc(NCc2ccc(F)cc2)nc1N.O=C(O)C=CC(=O)O,inactive
7,C[C@H]1CCCCO[C@H](CN(C)Cc2ccccc2)[C@@H](C)CN([C@@H](C)CO)C(=O)c2cc(NS(=O)(=O)c3cccs3)ccc2O1,inactive
8,CC(C)NC(=O)N(C)C[C@H]1Oc2ccc(NS(=O)(=O)c3ccc(Cl)cc3)cc2CC(=O)N([C@@H](C)CO)C[C@@H]1C,inactive
9,C[C@@H]1CCCCO[C@@H](CN(C)C(=O)Nc2cccc3ccccc23)[C@@H](C)CN([C@H](C)CO)C(=O)c2cc(NC(=O)Nc3cccc4ccccc34)ccc2O1,inactive
10,CC(=O)N1CCS(=O)(=O)[C@@H]2CCN(S(=O)(=O)c3ccccc3C)CC[C@@H]21,inactive
11,C[C@H](NC(=O)C[C@H]1C=C[C@H](NC(=O)CN2CCOCC2)[C@H](CO)O1)c1ccccc1,inactive

# Test system: S. aureus RN4220
# Assay: growth inhibition call (relative growth <= 0.2)
# Conditions: 50 µM
row,Compound,growth inhibition call
1,C[C@H](CO)N1C[C@H](C)[C@H](CN(C)C(=O)Nc2ccccc2)OCCCC[C@H](C)Oc2ccc(NC(=O)Nc3ccc(F)cc3)cc2C1=O,inactive
2,CC(=O)Nc1c(I)c(NC(C)=O)c(I)c(C(=O)O)c1I,inactive
3,C[C@H](CO)N1C[C@H](C)[C@H](CN(C)S(=O)(=O)c2cccs2)OCCCC[C@H](C)Oc2ccc(NC(=O)C3CCCCC3)cc2C1=O,inactive
4,O=C(CN1CCOCC1)N[C@H]1CC[C@H](CCNS(=O)(=O)c2ccccc2F)O[C@@H]1CO,inactive
5,COc1cccc(C#Cc2cnc3c(c2)C(=O)N([C@@H](C)CO)C[C@@H](C)[C@@H](CN(C)C(=O)C2CCOCC2)O3)c1,inactive
6,COc1cccc(NC(=O)N[C@H]2CC[C@H](CC(=O)N3CCN(C)CC3)O[C@@H]2CO)c1,inactive
7,CO[C@@H]1CN(C)C(=O)c2ccc(NC(=O)CC(F)(F)F)cc2OC[C@H](C)N(C(=O)C2CCOCC2)C[C@H]1C,inactive
8,C[C@@H]1CN([C@@H](C)CO)C(=O)c2c(c3ccccc3n2C)-c2ccccc2CO[C@@H]1CN(C)C(=O)N[C@H](C)c1ccccc1,inactive
9,C[C@H](CO)N1C[C@H](C)[C@@H](CN(C)CC2CCCCC2)Oc2ccc(NC(=O)Nc3cccc4ccccc34)cc2C1=O,inactive
10,CO[C@H]1CN(C)C(=O)c2cc(NS(=O)(=O)CC(F)(F)F)ccc2OC[C@H](C)N(C(=O)c2ccc3c(c2)OCO3)C[C@H]1C,inactive
11,CCCNC(=O)N(C)C[C@H]1Oc2cc(-c3ccccc3F)ccc2S(=O)(=O)N([C@@H](C)CO)C[C@H]1C,inactive
12,O=C(C[C@@H]1CC[C@@H]2[C@H](COC[C@H](O)CN2S(=O)(=O)c2ccc(Cl)cc2)O1)NCc1ccncn1,inactive
13,CCCCCN1CC=C[C@@]23O[C@@H]4C=CCOC(=O)[C@@H]4[C@H]2C(=O)N([C@@H](C)CO)[C@@H]3C1=O,inactive
14,C[C@@H]1CN([C@@H](C)CO)C(=O)CCCn2cc(nn2)CO[C@@H]1CN(C)C(=O)C1CC1,inactive
15,COc1ccc(S(=O)(=O)Nc2ccc3c(c2)C(=O)N([C@@H](C)CO)C[C@@H](C)[C@H](CN(C)S(=O)(=O)c2cccs2)O3)cc1,inactive
16,COc1ccc2c3c([nH]c2c1)[C@@H](CO)N(C[C@]13CN(Cc2nccs2)C1)S(=O)(=O)c1ccc(cc1)C,inactive
17,C=CCN1C(=O)C[C@@H]2[C@@H]1CCN2c1cnccn1,inactive
18,C[C@@H]1CN([C@H](C)CO)S(=O)(=O)c2ccc(C#Cc3ccccc3)cc2O[C@@H]1CN(C)C(=O)CN(C)C,active
19,COc1ccc(NC(=O)Nc2ccc3c(c2)C(=O)N([C@@H](C)CO)C[C@H](C)[C@@H](CN(C)CC2CC2)OCCCC[C@H](C)O3)cc1,inactive
20,CO[C@H]1C[C@@H](C[C@@H](C)[C@H]2CC(=O)[C@@H](C)/C=C(/C)[C@@H](O)[C@@H](OC)C(=O)[C@@H](C)C[C@@H](C)C=C/C=C\C=C(C)[C@H](OC)C[C@H]3CC[C@@H](C)[C@@](O)(O3)C(=O)C(=O)N3CCCC[C@@H]3C(=O)O2)CC[C@@H]1O,inactive

row,Compound,growth inhibition call
1,C[C@H]1CN([C@@H](C)CO)C(=O)c2cc(-c3cccc(C#N)c3)cnc2O[C@H]1CN(C)C(=O)c1cnccn1,inactive
2,COc1ccccc1CN(C)C[C@@H]1OCc2ccccc2-c2c(n(C)c3ccccc23)C(=O)N([C@H](C)CO)C[C@@H]1C,inactive
3,CCCNC(=O)N1C[C@@H](C)[C@H](OC)CN(C)C(=O)c2cc(NS(=O)(=O)CC(F)(F)F)ccc2OC[C@@H]1C,inactive
4,COc1ccc(S(=O)(=O)Nc2cccc3c2O[C@@H](CN(C)Cc2ccncc2)[C@@H](C)CN([C@@H](C)CO)C3=O)cc1,inactive
5,COc1ccccc1-c1cccc(-c2nc(C(=O)Nc3nccs3)cc3c2[C@@H](CCO)N(C(=O)CC2CC2)C3)c1,inactive
6,C[C@@H]1CN([C@H](C)CO)C(=O)c2cc(NC(=O)Nc3ccc(F)cc3)ccc2O[C@@H](C)CCCCO[C@H]1CN(C)C(=O)Nc1ccc(C(F)(F)F)cc1,inactive
7,CS(=O)(=O)NC[C@@]12COC[C@H]1CN(C(=O)COC1CCCC1)C2,inactive
8,O=C1C(Cl)=C2OC[C@@]2(O)C[C@@H]2CCCN12,inactive
9,C[C@H](CO)N1C[C@H](C)[C@H](CN(C)CC2CC2)Oc2c(NS(=O)(=O)c3cn(C)cn3)cccc2C1=O,inactive
10,C[C@@H]1CCCCO[C@@H](CN(C)S(=O)(=O)c2ccc(Cl)cc2)[C@@H](C)CN([C@H](C)CO)C(=O)c2cc(NC(=O)Nc3ccc(F)cc3)ccc2O1,inactive
11,COc1ccc(S(=O)(=O)Nc2ccc3c(c2)C(=O)N([C@@H](C)CO)C[C@@H](C)[C@H](CN(C)Cc2ccncc2)O3)cc1,inactive
12,CCS(=O)(=O)N1C[C@]2(CN(C2)S(=O)(=O)c2cn(cn2)C)c2c([nH]c3cc(ccc23)OC)[C@H]1CO,inactive
13,CCCN(C)C[C@@H]1OCCCC[C@H](C)Oc2ccc(NC(=O)Nc3ccc(C(F)(F)F)cc3)cc2C(=O)N([C@@H](C)CO)C[C@@H]1C,inactive
14,O=C(O)c1cc(S(=O)(=O)NCCN2CCNC2=O)ccc1O,inactive
15,CCOC(=O)Nc1ccc(NCc2ccc(F)cc2)nc1N.O=C(O)C=CC(=O)O,inactive
16,C[C@H]1CCCCO[C@H](CN(C)Cc2ccccc2)[C@@H](C)CN([C@@H](C)CO)C(=O)c2cc(NS(=O)(=O)c3cccs3)ccc2O1,inactive
17,CC(C)NC(=O)N(C)C[C@H]1Oc2ccc(NS(=O)(=O)c3ccc(Cl)cc3)cc2CC(=O)N([C@@H](C)CO)C[C@@H]1C,inactive
18,C[C@@H]1CCCCO[C@@H](CN(C)C(=O)Nc2cccc3ccccc23)[C@@H](C)CN([C@H](C)CO)C(=O)c2cc(NC(=O)Nc3cccc4ccccc34)ccc2O1,inactive
19,CC(=O)N1CCS(=O)(=O)[C@@H]2CCN(S(=O)(=O)c3ccccc3C)CC[C@@H]21,inactive
20,C[C@H](NC(=O)C[C@H]1C=C[C@H](NC(=O)CN2CCOCC2)[C@H](CO)O1)c1ccccc1,inactive
